One assay concerns the target FLAG-tagged MYC (UniProt P01106). Kind of assay: co-IP; HEK293T cells transfected with the indicated plasmids, lysed 24 h later; 400 µg lysate, 90 min with anti-HA affinity gel or Flag M2 affinity gel in 25 mM Tris pH 8.0, 0.15 M NaCl, 0.25 mM EDTA, 2.5% glycerol, 0.25% NP40, 1 mM DTT; Benzonase in the lysis buffer; immunoblot. Background: Immunoblotting shows a protein as a band on a membrane.

Sequences of proteins named here, by UniProt entry; tags and fusion partners are left off. A change or cut given only in a name is not applied to a line headed by its entry. A line that says so, or that is headed by a name, gives the form on record, which may keep a tag or linker. Residues count along the entry.
UniProt P01106, residues 16-454: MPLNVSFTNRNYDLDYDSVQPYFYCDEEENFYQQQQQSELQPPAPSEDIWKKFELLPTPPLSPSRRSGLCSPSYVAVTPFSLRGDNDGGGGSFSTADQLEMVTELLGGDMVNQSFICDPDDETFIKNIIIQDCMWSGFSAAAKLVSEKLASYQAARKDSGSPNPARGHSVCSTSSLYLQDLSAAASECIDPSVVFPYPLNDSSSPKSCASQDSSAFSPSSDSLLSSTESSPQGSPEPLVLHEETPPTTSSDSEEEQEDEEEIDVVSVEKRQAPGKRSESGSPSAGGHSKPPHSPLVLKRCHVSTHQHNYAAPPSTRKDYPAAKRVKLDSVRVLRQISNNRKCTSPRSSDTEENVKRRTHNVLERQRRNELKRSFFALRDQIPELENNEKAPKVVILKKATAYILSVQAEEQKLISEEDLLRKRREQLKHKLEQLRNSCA
UniProt Q13761: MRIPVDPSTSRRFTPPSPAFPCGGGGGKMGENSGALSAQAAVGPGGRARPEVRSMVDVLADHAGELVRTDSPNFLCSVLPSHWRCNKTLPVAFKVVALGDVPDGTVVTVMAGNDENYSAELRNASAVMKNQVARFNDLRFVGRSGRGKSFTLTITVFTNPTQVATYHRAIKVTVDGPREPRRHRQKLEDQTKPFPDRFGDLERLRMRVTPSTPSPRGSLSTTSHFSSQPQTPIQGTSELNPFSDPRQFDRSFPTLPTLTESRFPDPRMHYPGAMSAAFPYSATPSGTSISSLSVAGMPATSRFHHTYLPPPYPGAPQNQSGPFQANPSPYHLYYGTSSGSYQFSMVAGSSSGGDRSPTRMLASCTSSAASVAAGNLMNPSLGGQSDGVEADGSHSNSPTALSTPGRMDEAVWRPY
FLAG-tagged RUNX3 truncation (aa 1-187): residues 1-187 of Q13761

Assay [1] concerns the target FLAG-tagged RUNX3 (human) (UniProt Q13761). The assay is described as above.
The target of assay [2] is FLAG-tagged RUNX3 truncation (aa 1-187) (human) (UniProt Q13761). The assay is described as above.
Assay [3] has as its target endogenous RUNX3 (human (endogenous in HGC27)) (UniProt Q13761). Nature of the assay: proximity ligation; Duolink in situ PLA on HGC27 cells, endogenous proteins, pairs of primary antibodies.
Assay [4] has the same target. Kind of assay: co-IP; endogenous proteins, 1 mg HGC27 whole-cell lysate, anti-RUNX3 antibody (D9K6L) or normal IgG overnight at 4 °C, Dynabeads Protein G; immunoblot.

These are yes or no findings as the source states them, for the method shown. Binding seen in cells or lysates may run through a third protein. Some entries that bind do so weakly or less than the wild type.

B1: MIZ-1 (protein, UniProt Q13105 1-803)
chain: MDFPQHSQHVLEQLNQQRQLGLLCDCTFVVDGVHFKAHKAVLAACSEYFKMLFVDQKDVVHLDISNAAGLGQVLEFMYTAKLSLSPENVDDVLAVATFLQMQDIITACHALKSLAEPATSPGGNAEALATEGGDKRAKEEKVATSTLSRLEQAGRSTPIGPSRDLKEERGGQAQSAASGAEQTEKADAPREPPPVELKPDPTSGMAAAEAEAALSESSEQEMEVEPARKGEEEQKEQEEQEEEGAGPAEVKEEGSQLENGEAPEENENEESAGTDSGQELGSEARGLRSGTYGDRTESKAYGSVIHKCEDCGKEFTHTGNFKRHIRIHTGEKPFSCRECSKAFSDPAACKAHEKTHSPLKPYGCEECGKSYRLISLLNLHKKRHSGEARYRCEDCGKLFTTSGNLKRHQLVHSGEKPYQCDYCGRSFSDPTSKMRHLETHDTDKEHKCPHCDKKFNQVGNLKAHLKIHIADGPLKCRECGKQFTTSGNLKRHLRIHSGEKPYVCIHCQRQFADPGALQRHVRIHTGEKPCQCVMCGKAFTQASSLIAHVRQHTGEKPYVCERCGKRFVQSSQLANHIRHHDNIRPHKCSVCSKAFVNVGDLSKHIIIHTGEKPYLCDKCGRGFNRVDNLRSHVKTVHQGKAGIKILEPEEGSEVSVVTVDDMVTLATEALAATAVTQLTVVPVGAAVTADETEVLKAEISKAVKQVQEEDPNTHILYACDSCGDKFLDANSLAQHVRIHTAQALVMFQTDADFYQQYGPGGTWPAGQVLQAGELVFRPRDGAEGQPALAETSPTAPECPPPAE
B1: the binding entry (with FLAG-tagged MYC; in assay [1]; in assay [2]) was “binds” throughout.

B2: endogenous MIZ-1 (protein, UniProt Q13105 1-803)
chain: B1 chain
Regarding B2, the binding result in assay [3] and in assay [4] was “binds” in each case.

(Values after publication PMC10317990.)
